Measurements reported in paper PMC9911399, “Two distinct binding modes provide the RNA-binding protein RbFox with extraordinary sequence specificity”.
Substitutions are numbered along the chain they refer to; changes in the protein carry UniProt numbers. The list shows a part of the results.

T1: RBFOX1 RRM (Homo sapiens, UniProt Q9NWB1 109-208)
T1 sequence: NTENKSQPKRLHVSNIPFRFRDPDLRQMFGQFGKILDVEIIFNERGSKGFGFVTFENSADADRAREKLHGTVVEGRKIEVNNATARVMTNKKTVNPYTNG

B1: CUGUCUG (DNA:RNA)
RNA: GGGAGACCGGAAUUCAGAUUGUCCCUGUCUGUUAAAUCCCGUCGUAGCCACCA
DNA 1: CAATCTGAATTCCGGTCTCCC
DNA 2: TGGTGGCTACGACGGGATT
B2: AGGACGG (DNA:RNA)
RNA: B1 RNA with C25A, U26G, U28A, U30G
DNA 1: CAATCTGAATTCCGGTCTCCC
DNA 2: TGGTGGCTACGACGGGATT
B3: AUCGUAU (DNA:RNA)
RNA: B1 RNA with C25A, G27C, U28G, C29U, U30A, G31U
DNA 1: CAATCTGAATTCCGGTCTCCC
DNA 2: TGGTGGCTACGACGGGATT
B4: UCCCAUG (DNA:RNA)
RNA: B1 RNA with C25U, U26C, G27C, U28C, C29A
DNA 1: CAATCTGAATTCCGGTCTCCC
DNA 2: TGGTGGCTACGACGGGATT
B5: AGAUGAA (DNA:RNA)
RNA: B1 RNA with C25A, U26G, G27A, C29G, U30A, G31A
DNA 1: CAATCTGAATTCCGGTCTCCC
DNA 2: TGGTGGCTACGACGGGATT
B6: CUCGUAA (DNA:RNA)
RNA: B1 RNA with G27C, U28G, C29U, U30A, G31A
DNA 1: CAATCTGAATTCCGGTCTCCC
DNA 2: TGGTGGCTACGACGGGATT
B7: GUGUUGG (DNA:RNA)
RNA: B1 RNA with C25G, C29U, U30G
DNA 1: CAATCTGAATTCCGGTCTCCC
DNA 2: TGGTGGCTACGACGGGATT
B8: UGCAACG (DNA:RNA)
RNA: B1 RNA with C25U, U26G, G27C, U28A, C29A, U30C
DNA 1: CAATCTGAATTCCGGTCTCCC
DNA 2: TGGTGGCTACGACGGGATT
B9: ACAGGAC (DNA:RNA)
RNA: GGGAGACCGGAAUUCAGAUUGUCCACAGGACUUAAAUCCCGUCGUAGCCACCA
DNA 1: CAATCTGAATTCCGGTCTCCC
DNA 2: TGGTGGCTACGACGGGATT
B10: UUAACAG (DNA:RNA)
RNA: B1 RNA with C25U, G27A, U28A, U30A
DNA 1: CAATCTGAATTCCGGTCTCCC
DNA 2: TGGTGGCTACGACGGGATT
B11: UGUAUAC (DNA:RNA)
RNA: B9 RNA with A25U, C26G, A27U, G28A, G29U
DNA 1: CAATCTGAATTCCGGTCTCCC
DNA 2: TGGTGGCTACGACGGGATT
B12: CACUCAU (DNA:RNA)
RNA: B1 RNA with U26A, G27C, U30A, G31U
DNA 1: CAATCTGAATTCCGGTCTCCC
DNA 2: TGGTGGCTACGACGGGATT
B13: AUGGGGA (DNA:RNA)
RNA: B9 RNA with C26U, A27G, A30G, C31A
DNA 1: CAATCTGAATTCCGGTCTCCC
DNA 2: TGGTGGCTACGACGGGATT
B14: CAACAUU (DNA:RNA)
RNA: B1 RNA with U26A, G27A, U28C, C29A, G31U
DNA 1: CAATCTGAATTCCGGTCTCCC
DNA 2: TGGTGGCTACGACGGGATT
B15: UAUCGAC (DNA:RNA)
RNA: B9 RNA with A25U, C26A, A27U, G28C
DNA 1: CAATCTGAATTCCGGTCTCCC
DNA 2: TGGTGGCTACGACGGGATT
B16: GUUAGAU (DNA:RNA)
RNA: B9 RNA with A25G, C26U, A27U, G28A, C31U
DNA 1: CAATCTGAATTCCGGTCTCCC
DNA 2: TGGTGGCTACGACGGGATT
B17: AUUCUUG (DNA:RNA)
RNA: B1 RNA with C25A, G27U, U28C, C29U
DNA 1: CAATCTGAATTCCGGTCTCCC
DNA 2: TGGTGGCTACGACGGGATT
B18: GAUAGUG (DNA:RNA)
RNA: B1 RNA with C25G, U26A, G27U, U28A, C29G
DNA 1: CAATCTGAATTCCGGTCTCCC
DNA 2: TGGTGGCTACGACGGGATT
B19: GAAAUAA (DNA:RNA)
RNA: B9 RNA with A25G, C26A, G28A, G29U, C31A
DNA 1: CAATCTGAATTCCGGTCTCCC
DNA 2: TGGTGGCTACGACGGGATT
B20: AUUCCCA (DNA:RNA)
RNA: B1 RNA with C25A, G27U, U28C, U30C, G31A
DNA 1: CAATCTGAATTCCGGTCTCCC
DNA 2: TGGTGGCTACGACGGGATT

Target: T1, RBFOX1 RRM
Assay: EMSA; HiTS-Eq, 1 nM pool, 10 min; buffer printed only for the single-RNA assays: 10 mM Tris pH 7.5, 150 mM NaCl, 3.4 mM EDTA, 0.001% NP-40, 30 C
Conditions: tags: His6 N-terminal (pET28a); label: 5' 32P
Summary of the method: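 These values rest on relative association constants, computed from read-count changes of each RNA species versus the control reaction and normalised to the cognate motif. Reads came from free RNA recovered by 8% native PAGE after purified RbFox RRM (wild type or mutant) at increasing concentrations was equilibrated for 10 min in 50 µL with 1 nM of a 5′-radiolabelled pool with 7 randomized nucleotides and DNA-annealed flanks.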

Compared with B1, B2 is lower in binding signal: 0.0306 KA relative to UGCAUGU for the first, 0.0243 KA relative to UGCAUGU for the second.

Compared with B3, B4 is lower in binding signal: 0.00592 KA relative to UGCAUGU for the first, 0.000313 KA relative to UGCAUGU for the second.

Compared with B5, B6 is lower in binding signal: 0.0136 KA relative to UGCAUGU for the first, 0.0035 KA relative to UGCAUGU for the second.

First: B7
Second: B8
The binding signal of the first is higher: 0.0227 KA relative to UGCAUGU for the first, 0.0197 KA relative to UGCAUGU for the second.

Compared with B9, B10 is lower in binding signal: 0.00803 KA relative to UGCAUGU for the first, 0.00542 KA relative to UGCAUGU for the second.

Compared with B11, B12 is lower in binding signal: 0.00888 KA relative to UGCAUGU for the first, 0.00133 KA relative to UGCAUGU for the second.

First: B13
Second: B14
The binding signal of the first is higher: 0.00905 KA relative to UGCAUGU for the first, 0.00117 KA relative to UGCAUGU for the second.

First: B15
Second: B16
The binding signal of the first is lower: 0.00805 KA relative to UGCAUGU for the first, 0.0112 KA relative to UGCAUGU for the second.

Compared with B17, B18 is higher in binding signal: 0.0109 KA relative to UGCAUGU for the first, 0.0192 KA relative to UGCAUGU for the second.

Compared with B19, B20 is lower in binding signal: 0.00337 KA relative to UGCAUGU for the first, 0.000198 KA relative to UGCAUGU for the second.
